# PMC4336329 (PLoS ONE, 2015)
# The campaign covered roughly 310,000 compounds. About 14,000 (4.5%) showed an effect of 50% or more. Effects have a minus sign here. This is one part of the list.
# Target: human ether-à-go-go-related gene (hERG) potassium channel (human, UniProt Q12809)
# Test: primary screen, population patch clamp on CHO cells stably expressing hERG
# 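Also: peak tail current of the secondary pulse compared with the same well before compound.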
# Sequence of human ether-à-go-go-related gene (hERG) potassium channel (Q12809 whole entry, looked up): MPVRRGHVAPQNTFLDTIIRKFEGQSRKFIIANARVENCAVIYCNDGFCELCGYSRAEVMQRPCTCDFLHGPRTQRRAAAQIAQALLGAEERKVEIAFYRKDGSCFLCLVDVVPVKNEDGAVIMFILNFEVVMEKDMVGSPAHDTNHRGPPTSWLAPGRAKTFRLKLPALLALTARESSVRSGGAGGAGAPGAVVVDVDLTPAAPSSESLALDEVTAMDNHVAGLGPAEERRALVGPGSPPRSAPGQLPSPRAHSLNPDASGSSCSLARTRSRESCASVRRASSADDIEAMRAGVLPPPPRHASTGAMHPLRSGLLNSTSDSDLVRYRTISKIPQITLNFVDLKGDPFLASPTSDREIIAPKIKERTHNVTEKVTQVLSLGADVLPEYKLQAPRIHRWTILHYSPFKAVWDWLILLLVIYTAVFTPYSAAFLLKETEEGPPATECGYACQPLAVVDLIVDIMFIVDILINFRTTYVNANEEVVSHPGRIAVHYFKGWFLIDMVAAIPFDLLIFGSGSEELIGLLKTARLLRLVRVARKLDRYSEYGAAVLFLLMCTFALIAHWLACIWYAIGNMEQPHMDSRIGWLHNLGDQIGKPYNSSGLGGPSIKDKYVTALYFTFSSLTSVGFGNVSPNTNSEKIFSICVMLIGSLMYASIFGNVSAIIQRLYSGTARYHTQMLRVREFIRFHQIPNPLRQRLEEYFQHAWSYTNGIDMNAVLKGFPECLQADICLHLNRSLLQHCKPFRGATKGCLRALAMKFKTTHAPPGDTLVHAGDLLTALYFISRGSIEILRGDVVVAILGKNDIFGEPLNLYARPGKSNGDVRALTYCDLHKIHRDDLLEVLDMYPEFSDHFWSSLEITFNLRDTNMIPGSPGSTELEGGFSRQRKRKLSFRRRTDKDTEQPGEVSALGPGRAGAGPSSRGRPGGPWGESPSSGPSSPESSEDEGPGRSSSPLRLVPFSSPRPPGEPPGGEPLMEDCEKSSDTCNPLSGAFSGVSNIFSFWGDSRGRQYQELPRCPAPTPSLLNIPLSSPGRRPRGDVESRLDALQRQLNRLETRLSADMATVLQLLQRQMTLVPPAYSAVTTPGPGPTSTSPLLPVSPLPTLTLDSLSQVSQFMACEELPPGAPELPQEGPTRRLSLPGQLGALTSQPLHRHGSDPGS
row,SMILES,"hERG current change (%, negative = inhibition) at 10uM [%]"
1,COc1ccc(-c2c(NC(=O)CC(C)C)n(C)c3ccccc3c2=O)cc1OC,36.2
2,Cc1onc(-c2ccccc2)c1-c1ccnn1C(=O)NC(C)C,-4.87
3,O=C(CCC(=O)N(CC(=O)NC1CCCC1)Cc1cccs1)Nc1nccs1,-11.1
4,Cc1ccc(NC(=S)N2CCCC2)cc1,-6.49
5,CC(C)OCCCNc1nc2c([nH]1)c(=O)n(C)c(=O)n2C,-1.72
6,COC(=O)c1cc(C(=O)N(Cc2ccccc2)c2ccccn2)cc([N+](=O)[O-])c1,-22.4
7,COCCN(C(=O)Cn1nnc2ccccc21)C(C(=O)NC1CCCCC1)c1ccc(OC)cc1OC (stereo not drawn),-15
8,CC(=O)c1ccc(NC(=O)c2cc(S(=O)(=O)N3CCOCC3)ccc2C)cc1,-1.4
9,CC1=C(C(=O)NCc2ccco2)C2(CCC(C)CC2)OC1=O (stereo not drawn),7.32
10,Cc1ccccc1NS(=O)(=O)c1ccc(C2CNC(=O)C2)cc1 (stereo not drawn),8.49
11,Cc1ccccc1NC(c1cccc(Cl)c1)c1nnnn1C1CCCCC1 (stereo not drawn),3.74
12,O=C(CNC(=O)c1cc2c(n(-c3ccccc3)c1=O)CCCC2=O)c1ccccc1,-38.5
13,Cc1ccc2ccccc2c1Cn1c(-n2ccnc2)nc2c1c(=O)n(C)c(=O)n2C,-0.304
14,O=S(=O)(Nc1ccc(O)c2ccccc12)c1ccc(Br)cc1,-0.608
15,CC1=C(C(=O)Nc2ccccc2C(=O)NC2CCC(C)CC2)SCCO1 (stereo not drawn),14.4
16,CC1=NN(C(=O)c2ccc(Cn3cc([N+](=O)[O-])cn3)cc2)C(O)(C(F)(F)F)C1 (stereo not drawn),-21.1
17,CC[C@H](CO)NCCN[C@H](CC)CO.Cl,10.7
18,CN(CC(=O)Nc1cccc(F)c1)C(=O)Cc1n[nH]c(=O)c2ccccc12,5.31
19,CCO/C([O-])=N/c1sn[n+](C)c1C,18
20,Cc1c(O)c(CN2CCCCC2)cc2c3c(c(=O)oc12)CCC3,-11.5
21,O=C(O)c1ccccc1-c1nc2ccccc2c(=O)[nH]1,8.69
22,Cc1ccc(CNC(=O)CCCN2C(=S)NC(C)(C)CC2C)cc1 (stereo not drawn),-2.55
23,C=CCSc1nnc2c(n1)OC(c1ccco1)Nc1ccccc1-2 (stereo not drawn),-7.61

row,SMILES,"hERG current change (%, negative = inhibition) at 10uM [%]"
1,Cc1cc(C)cc(NC(=S)N2CCN(c3ccc(F)cc3)CC2)c1,-8.95
2,COc1cc(CN2CCC(N3CCC(C(=O)N4CCCC4)CC3)CC2)cc2c1OCO2,-17.6
3,Cc1c(C)n(C(=O)CSc2nccn2C)c2ccccc12,-9.32
4,Cc1ccc(NC(=O)COC(=O)CN2C(=O)NC3(CCCC3)C2=O)cc1F,14.1
5,CC(C)(C)NC(=O)Cn1nnc(-c2ccccc2NC(=O)c2ccco2)n1,3.01
6,COc1cc(OC)cc(C(=O)NCCCN2CCOCC2)c1,5.94
7,COc1ccc(NC(=O)/C(C#N)=C/C=C/c2ccco2)cc1,7.02
8,COc1cc(NC(=O)c2cccs2)c(C(=O)OCC(=O)c2cc(C)n(-c3ccc(F)cc3)c2C)cc1OC,11.1
9,c1ccc(-n2c(SCc3nc(-c4cccs4)no3)nnc2-c2ccco2)cc1,-42.6
10,COc1ccccc1OCCNC(=O)C(CCSC)NS(=O)(=O)c1ccccc1F (stereo not drawn),-9.96
11,O=C(Nc1ccc(N2CCCC2)c(Cl)c1)c1cccs1,24.8
12,COCCNC(=O)C(c1ccccc1C)N(CCOC)C(=O)Cn1nnc2ccccc21 (stereo not drawn),-3.04
13,Cc1ccc(-c2nc(N=Nc3ccc(O)cc3)n[nH]2)cc1,5.69
14,CCC(=O)N1CCN(c2nc(C)nc3sc(C)c(C)c23)CC1,-62
15,COc1ccc2oc(=O)c(C(=O)OCC(=O)c3ccc([N+](=O)[O-])cc3)cc2c1,15.6
16,COc1ccc(CN2C3CCC2CC(NC(=O)c2cccc(F)c2)C3)cc1 (stereo not drawn),-75.2
17,COc1cc(C(=O)NCC2CCCN2S(=O)(=O)c2cccs2)cc(OC)c1OC (stereo not drawn),-7.26
18,O=C(Nc1ccc2c(c1)C(=O)OC2)c1ccccc1Cl,14.9
19,CNC(=S)NCCc1c[nH]c2ccc(OC)cc12,12.9
20,O=C(NCc1cccnc1)Nc1ccc(Br)cc1,-3.66
21,CC1CCCC(=C\c2ccccc2)/C1=N/O (stereo not drawn),-0.41
22,O=c1c2c3c(sc2n2cnnc2n1-c1ccccc1)N(Cc1ccccc1)CCC3,-10.3
23,CSC1=NCCN1C(=O)c1ccco1,21.4

row,SMILES,"hERG current change (%, negative = inhibition) at 10uM [%]"
1,COc1ccc(NC(=S)NC(=O)c2ccccc2Cl)cc1,-24.4
2,O=C(Nc1cccnc1)c1ccccc1F,8.5
3,Cc1c(C(=O)N(Cc2ccccc2)C(C)C)cnn1-c1ccccc1,-8.4
4,CCOC(=O)c1c(NC(=O)CSC2=NN3CCCC(=O)N=C3S2)sc2c1CCCCC2,2.29
5,COc1ccc(S(=O)(=O)NCC2CCCN(C(=O)c3ccccc3)C2)cc1 (stereo not drawn),8.3
6,Cc1noc(C)c1COc1ccc(C(=O)Nc2ccccn2)cc1,8.06
7,COc1ccc(CNC(=O)Cc2cccs2)cc1OC,12.4
8,Cc1cc(C(F)F)n2ncc(C(=O)N3CCCCC3)c2n1,8.66
9,CN1C(=O)C2(C(C#N)=C(N)Oc3n[nH]c(-c4ccc(Cl)cc4)c32)c2ccccc21 (stereo not drawn),16.2
10,COc1ccc(C(=O)COC(=O)c2sc(C)nc2C)cc1OC,7.09
11,COc1ccccc1/C=C/C(=O)Nc1ccc2c(c1)OCCO2,-0.461
12,CCn1c(CS(=O)Cc2ccc(Cl)cc2Cl)nnc1SCc1c(Cl)cccc1Cl (stereo not drawn),-6.78
13,CN(C)/C=N/C(=S)Nc1ccc(Cl)cc1Cl,2.48
14,CN(C)c1ccc(NC(=O)C[n+]2ccccc2)cc1.[Cl-],18.5
15,CCOC(=O)N/N=C/c1cc(OC)c(O)c(OC)c1,54.3
16,CCOC(=O)c1cc2sccc2n1CC(=O)Nc1ccc(OC)c(OC)c1,-8.91
17,Cc1c(C(=O)NNc2cc(=O)n(C)c(=O)n2C)cccc1[N+](=O)[O-],23.6
18,Cc1ccc(S(=O)(=O)NCC(c2ccccc2)N2CCCCC2)cc1 (stereo not drawn),1.79
19,CCN(CC)c1ccc(C(=O)OCC(=O)Nc2cc(C)on2)cc1,9.35
20,Cc1ccccc1CN1CCC(n2nccc2NC(=O)c2cccnc2)CC1,-14.6
21,Cn1cc(C(=O)NCc2ccc(F)cc2)c(=O)c2cc(S(=O)(=O)N3CCCCC3)ccc21,-11.9
22,CCCc1c(O)nc(SC2CC(=O)N(c3cc(OC)ccc3OC)C2=O)[nH]c1=O (stereo not drawn),8.79
23,Cc1sc(NC(=O)C2CCCC2)c(C#N)c1C,15.1

row,SMILES,"hERG current change (%, negative = inhibition) at 10uM [%]"
1,COCCCN(C(=S)NC(=O)C12CC3CC(CC(C3)C1)C2)c1c(N)n(Cc2ccccc2)c(=O)[nH]c1=O,15.3
2,COc1c(C)cc(C(=O)C2CCCN(C(=O)Cn3nc(C)nc3C)C2)cc1C (stereo not drawn),12.6
3,CN1/C(=C\C(=O)c2cccs2)Sc2ccccc21,14.8
4,COc1ccccc1/C=C1\SC(=O)N(CC(=O)N(C)C2CCS(=O)(=O)C2)C1=O (stereo not drawn),11.5
5,CC(=O)Oc1ccc(N2C(=O)C3C(C2=O)C2(C)C=CC3(C)O2)cc1 (stereo not drawn),-18.5
6,COc1cc(CNC23CC4CC(CC(C4)C2)C3)ccc1OCc1ccccc1.Cl,-64
7,Cc1cccc(NC(=O)Cn2cnc3c(oc4ccccc43)c2=O)c1,12.5
8,CCOc1ccccc1NC(=O)c1nnn(CC(=O)Nc2ccc3c(c2)OCO3)c1N,14.2
9,COc1ccccc1S(=O)(=O)Cc1ccc(C(=O)NCc2ccco2)o1,-33.5
10,Cc1cccnc1NC(=O)c1ccc2c(c1)NC(=O)C(C)S2 (stereo not drawn),-13.2
11,CC1c2[nH]c3ccccc3c2CCN1C(=O)Nc1ccccc1 (stereo not drawn),-14.7
12,CC(/C=N/n1c(-c2ccco2)n[nH]c1=S)=C\c1ccco1,1.57
13,CC1=NN(c2ccccc2)C(=O)/C1=C/c1ccc[nH]1,-7.74
14,Fc1ccc(F)c(C2=NNC(=NCC3CCCO3)SC2)c1 (stereo not drawn),14
15,O=C(Nc1ccc(OC(F)(F)F)cc1)c1[nH]ncc1[N+](=O)[O-],-0.846
16,CC(C)c1ccc2[nH]c(O)c(N=NC(=O)c3cccc(S(=O)(=O)N4CCCCC4)c3)c2c1,0.517
17,COc1ccccc1NS(=O)(=O)c1ccc(-c2cnc(C3CC3)o2)cc1,10.7
18,CCOc1ccc(/C=c2\sc3nc(-c4ccco4)nn3c2=O)cc1OCC,8.31
19,CCOC(=O)C1=NNC(C(=O)c2ccc(Cl)cc2)C1c1ccccc1 (stereo not drawn),-23.9
20,C=CCNC(=O)c1c(Cl)nc(C)c([N+](=O)[O-])c1C,-2.88
21,COCCCNC(=O)C1CCC(=O)N1Cc1ccccc1Cl (stereo not drawn),14.6
